Source: article PMC6919601, “Identification of Plasmodium dipeptidyl aminopeptidase allosteric inhibitors by high throughput screening” (PLoS ONE, 2019)
The whole screen tested about 110,000 compounds, of which about 230 (0.21%) showed an effect of 50% or more. The list shows a part of the results.

Target: DPAP1 (Plasmodium falciparum, UniProt Q8IIJ9)
Experiment: primary screen, percent inhibition; read by cleavage of a fluorogenic dipeptide substrate; higher = more effect of the substance
Set-up: species or system P. falciparum D10 trophozoite lysates; single well
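Note: 30 min substrate incubation versus DMSO and 10 µM JCP410 controls.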

Sequence of DPAP1 (Q8IIJ9 whole entry, looked up): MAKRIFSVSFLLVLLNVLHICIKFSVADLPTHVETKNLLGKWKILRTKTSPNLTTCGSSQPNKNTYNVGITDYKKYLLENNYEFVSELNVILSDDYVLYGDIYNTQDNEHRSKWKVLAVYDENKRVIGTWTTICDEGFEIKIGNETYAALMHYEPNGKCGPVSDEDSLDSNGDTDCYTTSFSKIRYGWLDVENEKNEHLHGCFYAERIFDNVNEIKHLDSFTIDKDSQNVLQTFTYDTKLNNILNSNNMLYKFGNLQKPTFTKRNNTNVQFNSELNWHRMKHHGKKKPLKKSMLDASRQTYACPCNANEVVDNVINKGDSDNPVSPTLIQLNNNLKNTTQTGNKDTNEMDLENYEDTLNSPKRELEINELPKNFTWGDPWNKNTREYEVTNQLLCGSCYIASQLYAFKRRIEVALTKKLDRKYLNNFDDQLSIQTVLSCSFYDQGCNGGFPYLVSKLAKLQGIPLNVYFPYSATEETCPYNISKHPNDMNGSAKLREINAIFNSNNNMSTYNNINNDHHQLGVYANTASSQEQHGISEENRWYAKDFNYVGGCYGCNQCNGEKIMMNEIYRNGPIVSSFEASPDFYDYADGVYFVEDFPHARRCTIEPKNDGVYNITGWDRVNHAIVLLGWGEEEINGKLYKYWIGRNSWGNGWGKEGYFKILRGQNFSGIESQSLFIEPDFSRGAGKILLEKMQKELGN

Structure (SMILES)	% Inhibition @ 10 uM
O=C(Nc1ccc(-c2nc3cc(NC(=O)C(F)(F)F)ccc3[nH]2)cc1)C(F)(F)F	0.912%
Cn1cccc1Cc1nnc(SCC(=O)NCc2ccco2)n1C	2.5%
CC(C)C[C@H](NC(=O)OCc1ccccc1)C(=O)NC(C#N)CC(C)CC(C)(C)C (stereo partly drawn)	-6.46%
CCN(CC)CCn1c2ccccc2n2c(C(=O)OC)c(C)nc12	2%
Clc1ccc(N2CCN(C3CCC(c4ccccc4)CC3)CC2)cc1 (stereo not drawn)	-2.95%
CCOc1ccccc1N1CCN(Cc2c(F)cccc2Cl)CC1	-1.78%
COc1ccc(C(=O)Nc2sc3c(c2C(N)=O)CCCC3)c(OC)c1	5.39%
CC(C)(C)C1=CC(=O)c2c(ccc(C(C)(C)C)c2O)C1=O	3.72%
COc1ccc(-c2cc(C(=O)N3CCCCCC3)no2)cc1	0.723%
Cc1ccc(S(=O)(=O)N(CC(=O)Nc2ccccc2)Cc2ccc(Cl)cc2)cc1	-1.36%
CCC(C)NS(=O)(=O)c1ccc(OCC(=O)Nc2ccc(F)cc2F)cc1 (stereo not drawn)	1.17%
CSc1ncc(Cl)c(C(=O)Nc2nc3ccc(S(C)(=O)=O)cc3s2)n1	2.89%
CCC(C(=O)Nc1nc2nc(C)c(Cl)c(C)n2n1)c1ccccc1 (stereo not drawn)	0.401%
COc1ccccc1C(=O)n1nc(-c2ccco2)nc1NCc1cccs1	-3.24%
CN1CCC(N(C)Cc2ccccc2)CC1	-0.828%
O=C(NCc1ccc(-n2cccc2)cc1)C1CCCCC1	7.51%
CC(C)C(NC(=O)c1ccco1)C(=O)O (stereo not drawn)	1.7%
COC(=O)c1cc(S(=O)(=O)N2CCC(Cc3ccccc3)CC2)c[nH]1	5.94%
CCCOc1c(Cl)cc(C(=O)N(Cc2ccc(C)o2)C2CCS(=O)(=O)C2)cc1Cl (stereo not drawn)	-2.85%
O=C(O)CCN1C(=O)C2C3C=CC(C2C1=O)C1C(=O)N(CCC(=O)O)C(=O)C31 (stereo not drawn)	-3.92%
Cc1nn(-c2ccccc2)c(O)c1C(=N)NC(=O)c1ccccc1	-3.02%
CCOc1ccc(S(=O)(=O)N2CCN(Cc3ccccc3)CC2)c2cccnc12	4.33%
O=C(Cn1ncc2ccc(Cl)cc21)NCCC1=CCCCC1	-8.57%
CCOC(=O)c1c(C)oc2c1c(C(c1ccncc1)N1CCCCC1)c(O)c1ccccc12 (stereo not drawn)	-3.21%
COc1ccc(C2C3=C(O)CC(C)(C)CC3=NC(C)=C2C(=O)N2CCOCC2)cc1O (stereo not drawn)	2.51%
O=C(Nc1cccc(Cl)c1)C(=O)NC1CCCCC1	1.29%
CCOC(=O)c1c(C)n(-c2ccccc2)c2cc(Br)c(O)c(CN3CCOCC3)c12	-2.75%
